Results from PubChem BioAssay AID1645887 (National Center for Advancing Translational Sciences (NCATS), 2021).
Where “and” joins values, the source holds several entries; their conditions need not be identical. Equal entries are not always repeated. About 40 (0.2%) of roughly 16,000 compounds were called active. Another 1% or so got no clear call; they are omitted. Calls follow the shape of the dose curve; as a rule, active = well fitted activation curve with a large enough effect; inconclusive = small, poorly fitted or top-dose-only effect, or another doubt; inactive = no such curve, though single readings can be large or run the other way. Some of the results follow.

target: Rap guanine nucleotide exchange factor 4 (Homo sapiens) (UniProt Q8WZA2); test: Validation qHTS for agonist of cAMP-regulated guanine nucleotide exchange factor 4 (EPAC2); settings: EPAC2 Rap1B BODIPY-GDP exchange, fluorescence; activation: hits give high values;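 also: exchange makes BODIPY-GDP fluorescence drop when released from Rap1B; series mostly up to about 150 µM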
Method in brief: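 Signal normalized against 6.5 mM cAMP as agonist control. Mix of EPAC2 (100 nM), RAP1B-BODIPY-GDP (250 nM) and GDP (50 uM) was read kinetically at 480/540 nm, every 5 min over 30 min, after 5 min room-temperature incubation with compound.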
% is scaled to controls: 0 for no effect and ±100 for the full control effect.

Chain of UniProt Q8WZA2 (Q8WZA2 whole entry, looked up): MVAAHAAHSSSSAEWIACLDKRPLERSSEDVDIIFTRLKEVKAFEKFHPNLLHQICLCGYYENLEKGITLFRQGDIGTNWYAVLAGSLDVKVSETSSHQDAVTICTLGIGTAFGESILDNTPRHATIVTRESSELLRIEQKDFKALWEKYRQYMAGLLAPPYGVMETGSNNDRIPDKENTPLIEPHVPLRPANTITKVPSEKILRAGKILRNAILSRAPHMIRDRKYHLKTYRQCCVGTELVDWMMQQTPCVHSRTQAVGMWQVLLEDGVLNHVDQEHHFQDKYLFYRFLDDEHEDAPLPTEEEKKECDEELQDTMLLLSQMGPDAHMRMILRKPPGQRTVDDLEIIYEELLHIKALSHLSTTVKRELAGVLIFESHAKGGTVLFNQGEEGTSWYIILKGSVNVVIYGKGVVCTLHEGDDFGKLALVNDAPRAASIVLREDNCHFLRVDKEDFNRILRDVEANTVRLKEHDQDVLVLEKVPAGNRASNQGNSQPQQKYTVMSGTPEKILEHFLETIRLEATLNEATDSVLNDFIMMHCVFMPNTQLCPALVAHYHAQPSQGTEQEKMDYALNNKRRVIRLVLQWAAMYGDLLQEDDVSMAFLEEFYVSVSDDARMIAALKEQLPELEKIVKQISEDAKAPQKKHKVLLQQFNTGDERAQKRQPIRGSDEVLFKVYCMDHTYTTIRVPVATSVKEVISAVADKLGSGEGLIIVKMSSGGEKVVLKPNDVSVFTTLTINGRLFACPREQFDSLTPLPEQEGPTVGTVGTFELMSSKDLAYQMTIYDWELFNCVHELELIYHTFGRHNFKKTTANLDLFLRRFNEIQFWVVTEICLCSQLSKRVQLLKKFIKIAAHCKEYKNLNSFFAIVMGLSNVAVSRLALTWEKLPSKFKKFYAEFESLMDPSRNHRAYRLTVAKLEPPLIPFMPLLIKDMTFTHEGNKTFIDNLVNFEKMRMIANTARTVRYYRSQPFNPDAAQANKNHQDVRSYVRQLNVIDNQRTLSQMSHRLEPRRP

activation, inactive:
CCCN1CCC(=O)N([C@H](CO)Cc2ccccc2)CC1 -8.81%
CN1CCN(c2ncnc3ccc(-c4cccc(C#N)c4)cc23)CC1 -9.47%
CN(C)c1ccc(/C=C/c2ccnc3ccccc23)cc1Cl -5.92%
C/C(=C(\CCOP(=O)(O)O)SC(=O)c1ccccc1)N(C=O)Cc1cnc(C)nc1N -20%
O=C1CCC[C@@H]2[C@@H](Cc3ccccc3)[C@@H](Nc3ccccc3)C[C@@H]3CCN1[C@@H]32 -36.7%
CC(=O)SC1CC2=CC(=O)CC[C@]2(C)C2CC[C@@]3(C)C(CC[C@@]34CCC(=O)O4)C12 (stereo not given in full) -18.5%
CC(=O)c1c(O)c(C)c(O)c2c1OC1=CC(=O)C(C(C)=O)C(=O)[C@@]12C (stereo not given in full) -5.68%
CC(C)(C)C(=O)OCC(=O)[C@H]1CC[C@H]2[C@@H]3CCC4=CC(=O)CC[C@]4(C)[C@H]3CC[C@]12C 11.3%
COc1ccc(CN2CCC3(CC2)c2ccccc2[C@@H](NC(=O)c2ccccc2OC)[C@@H]3O)cc1O -9.28%
CN=C(NC#N)Nc1ccc(C2=NNC(=O)CC2C)cc1 (stereo not given) -6.92% and -8.13%
O=C(c1cc(C(F)(F)F)cc(C(F)(F)F)c1)N1CCC2(CC1)CCN(c1ccccn1)CC2 -18.9%
O=c1c(-c2ccc(Cl)cc2)nc2cnc(N3CCNCC3)nc2n1CCc1ccccc1 -11.7%
C[C@H](N)[C@H](O)c1cccc(O)c1 3.96%
COc1ccc(C(=O)/C(Br)=C\C(=O)O)cc1 -8.52%
COC(=O)c1ccccc1NC(=O)c1ccc(F)cc1 -12.4%
COc1cccc(-c2ccc3ncnc(N4CCOCC4)c3c2)c1 1.49%
CC(=O)[C@@]1(O)CC[C@H]2[C@@H]3C[C@H](C)C4=CC(=O)CC[C@]4(C)[C@H]3CC[C@@]21C 1.05%
O=C(CO)[C@@H](O)[C@H](O)[C@H](O)CO -13.5%
CC1(C)S[C@@H]2[C@H](NC(=O)C(C(=O)O)c3ccccc3)C(=O)N2[C@H]1C(=O)O (stereo not given in full) -14.6%
O=C1CCC[C@@H]2C[C@@]3(C[C@@H]4CCN1[C@H]24)Nc1cc([N+](=O)[O-])ccc1NC3=NC1CCCCC1 -24%
Cc1nc(C)c(CC(=O)N2CCOc3ccc(CN4CCOCC4)cc3C2)s1 -5.71%
Cn1c(C(c2cc3ccccc3n2C)c2cc3ccccc3n2C)cc2ccccc21 11.4%
CCOC(=O)OCC/C(SC(=O)OCC)=C(\C)N(C=O)Cc1cnc(C)nc1N -3.83%
CCCS(=O)(=O)NCc1c(C)ncc2c1CCN(C(=O)/C=C/c1ccccc1)C2 -17.3%
CCNc1ncc2nc(-c3ccc(F)cc3)c(=O)n(CCOC)c2n1 -14.6%
CCN(CC)CCOC(=O)C(Cc1cccc2ccccc12)CC1CCCO1 (stereo not given) -12% and 11.3%
O=c1c(-c2ccccc2)nc2cnc(N3CCOCC3)nc2n1CCc1ccccc1 -4.01%
C[C@H](CC[C@@H]1OC1(C)C)C1CC[C@H]2[C@@H]3CC=C4C[C@@H](O)CC[C@]4(C)[C@H]3CC[C@]12C (stereo not given in full) 3.89%
COc1c(-c2ccccc2)oc2c(ccc3occc32)c1=O 4.26%
Cc1c(C(=O)O)c(O)cc2c1C(=O)c1c(O)c([C@@H]3O[C@H](CO)[C@@H](O)[C@H](O)[C@H]3O)c(O)c(O)c1C2=O -3.4%
Cc1ccc(CN2[C@@H](CC3CCCCC3)COCCS2(=O)=O)cc1 -34.4%
Cc1cc(C)c2nccc(/C=C/c3ccc(N(C)C)cc3)c2c1 3.15%
COc1ccc(C(=O)N2CCC[C@@]3(CCN(C(=O)Nc4cccc(C#N)c4)C3)C2)cc1 -15.4%
O=C1C[C@@H]2c3c(cccc3CN1Cc1ccccc1)C[C@@H](O)[C@H]2O -14%
NC(=NCCCCCCN=C(N)/N=C(\N)Nc1ccc(Cl)cc1)/N=C(\N)Nc1ccc(Cl)cc1 -10.4% and -4.44%
CC(C)(C)C(=O)C(Oc1ccc(Cl)cc1)n1ccnc1 (stereo not given) -11.2%
CC(O)(COc1ccccc1)c1ccc2c(c1)CN(Cc1cccc3ncccc13)CCO2 (stereo not given) -11.1%
CC(C)=CCC/C(C)=C/CC/C(C)=C/CO -9.49% and -37.2% and -7.85%
Cc1nc2sccn2c(=O)c1CCN1CCC(=C(c2ccccc2)c2ccc(F)cc2)CC1 -3.89% and -8.69%
CC(=O)N1CCC[C@@]2(CCN(Cc3ccc(C#N)cc3)C2)C1 -27.6%
CC(C)(C)C1CCC(=O)N(CCOc2ccccc2)CC1 (stereo not given) -40.1%
S=c1ccss1 -12.1%
N[C@H](C(=O)O)c1ccc(C(=O)O)cc1 -5.27% and 3.47%
CC1=C(CC(=O)O)c2cc(F)ccc2/C1=C\c1ccc(S(C)(=O)=O)cc1 -54.7%
NC(N)=NC(=O)c1nc(Cl)c(N2CCCCCC2)nc1N 7.58% and -13.3%
COC(=O)CC1[C@@]2(C)C[C@@]34OC5(C)OC6(CC[C@@]7(C)C(c8ccoc8)OC(=O)C(C(C)=O)C7[C@]6(O5)C(O)[C@@]3(O)C2O)[C@]14C (stereo not given in full) -14.7%
CS(=O)(=O)c1ccc(-c2cc(Br)sc2-c2ccc(F)cc2)cc1 -0.502%
O=C1CN(/N=C/c2ccc([N+](=O)[O-])o2)C(=O)N1 42.9% and -14.3%
c1ccc2c(c1)CN1CCCC1=N2 -27.5% and -15.8%
CC(C)C[C@@H](CSc1ccccc1)N1CCN(CCc2ccccc2)CCC1=O -33.1%
NCC1O[C@@H](O[C@H]2C(O)C(O[C@@H]3C(O[C@H]4OC(CO)C(O)C(O)C4N)C(N)CC(N)[C@H]3O)O[C@@H]2CO)C(N)C(O)C1O (stereo not given in full) -11.5%
COc1ccc(NC(=O)N2CC3(CCN(C(=O)c4ccco4)CC3)C2)cc1 2.23%
O=c1cnc2cnc(Oc3cccc(Cl)c3)nc2n1CCc1ccccc1 3.2%
COc1ccc2[nH]cc(CCNc3ccnc(-c4cccnc4)n3)c2c1 8.22%
Cc1ccc(CN2[C@@H](Cc3ccccc3)C(=O)CS2(=O)=O)cc1 -24.1%
COc1ccc(C(=O)N2CCC3(CCCN(C(=O)Nc4cccc(C#N)c4)C3)CC2)cc1 -15.3%
Cc1ccccc1OCC(O)CO (stereo not given) -11%
CCCCCCCCCCCCCCCCCCc1ccc(C(=O)/C=C\C(=O)O)cc1 -34.6%
CSCC[C@H](NC(=O)[C@H](Cc1ccc(OS(=O)(=O)O)cc1)NC(=O)[C@@H](N)CC(=O)O)C(=O)NCC(=O)N[C@@H](Cc1c[nH]c2ccccc12)C(=O)N[C@@H](CCSC)C(=O)N[C@@H](CC(=O)O)C(=O)N[C@@H](Cc1ccccc1)C(N)=O -13.9% and -2.4%
NS(=O)(=O)c1cc2c(cc1Cl)NC(CSCc1ccccc1)=NS2(=O)=O -13.2%
Cc1cc(C(=O)Nc2ccccc2-c2nc(CNC(=O)c3cc4ccccc4cn3)c(C)o2)c(C)o1 -3.52%
CS(=O)(=O)N1CCC2(CC1)CN(Cc1ccc(C#N)cc1)C2 -1.21%
c1cncc(-c2nc(NCc3cccs3)c3ccccc3n2)c1 -0.0979%
O=C(O)c1ccccc1Nc1cc(Cl)ccc1C(=O)O 8.54%
c1csc(CNc2nc(-c3ccoc3)nc3ccccc23)c1 11.9%
CNC1C(O)C2OC3OC(C)CC(=O)[C@@]3(O)O[C@H]2[C@H](NC)C1O (stereo not given in full) 1.15%
O=C(c1ccc2c(c1)OCCO2)N1CCCCC1 -3.26%
Cc1nc(C)c(C(=O)N2CCc3c(cnc(C)c3CNC(=O)c3cncs3)C2)s1 -2.5%
COc1ccc(Oc2ncc3nc(-c4cc(F)cc(F)c4)c(=O)n(C4CC4)c3n2)cc1 -9.8%
COc1ccc(C(=O)N2CCC3(CCCN(Cc4ccncc4)C3)CC2)cc1 -11.2%
CC(C)NC(=O)N1CC[C@@]2(CCCN(C(=O)c3csnn3)C2)C1 -13.1%
C=C[C@](C)(O)CCC=C(C)C -5.76%
COc1cc(-c2ccc(Cl)cn2)cc2c1OCCN(S(=O)(=O)C[C@]13CC[C@H](CC1=O)C3(C)C)C2 -4.04%
Cc1cc(NS(=O)(=O)c2ccc(N)cc2)no1 -9.29% and -9.07%
COC(=O)C[C@H]1c2cc(C(F)(F)F)ccc2S(=O)(=O)N1Cc1ccccc1 -16.2%
C=C[C@@H](C1=CC(=O)C(OC)=C(OC)C1=O)c1ccccc1 -14.9%
Cc1c(CN2CCOc3c(O)cc(-c4nc5ccccc5s4)cc3C2)cnn1C -13.4%
Cc1ccnc2c(Cl)ccc(Cl)c12 -24.2%
C=C1CCC(O)C/C1=C/C=C1\CCC[C@@]2(C)C(C(C)/C=C/C(C)C(C)C)CC[C@@H]12 (stereo not given in full) -33.9%
Clc1ccccc1-c1cncnc1NCc1cccs1 -5.74%
